In a compilation of properties of binary mixtures (doi:10.1021/jp3012602):
The densities may have been worked out from excess volumes.

Assay: xn = mol fraction of the nth substance listed
Conditions: 101 kPa

Structure (SMILES)	mass density (293.15 K, x2 = 0.75) [kg/m3]	mass density (303.15 K, x2 = 0) [kg/m3]	mass density (303.15 K, x2 = 0.75) [kg/m3]	mass density (313.15 K, x2 = 0) [kg/m3]	mass density (313.15 K, x2 = 0.5) [kg/m3]	mass density (323.15 K, x2 = 0) [kg/m3]	mass density (323.15 K, x2 = 0.5) [kg/m3]	mass density (323.15 K, x2 = 0.75) [kg/m3]	mass density (333.15 K, x2 = 0.5) [kg/m3]	mass density (343.15 K, x2 = 0) [kg/m3]	mass density (343.15 K, x2 = 0.5) [kg/m3]	mass density (343.15 K, x2 = 0.75) [kg/m3]	mass density (353.15 K, x2 = 0.75) [kg/m3]	mass density (303.15 K, x1 = 1) [kg/m3]	mass density (313.15 K, x1 = 1) [kg/m3]	mass density (323.15 K, x1 = 1) [kg/m3]	mass density (333.15 K, x1 = 1) [kg/m3]	mass density (343.15 K, x1 = 1) [kg/m3]	mass density (353.15 K, x1 = 1) [kg/m3]	mass density (333.15 K, x2 = 0) [kg/m3]	further results
CCC[N+]1(C)CCCC1.O=S(=O)([N-]S(=O)(=O)C(F)(F)F)C(F)(F)F + CCCC[N+]1(C)CCCC1.O=S(=O)([N-]S(=O)(=O)C(F)(F)F)C(F)(F)F	1406	1423	1398	1414	1397	1405	1388	1380	1379	1388	1370	1363	1354	–	–	–	–	–	–	–	mass density (293.15 K, x2 = 0.5): 1415 kg/m3; mass density (303.15 K, x2 = 0.25): 1414 kg/m3; mass density (303.15 K, x2 = 0.5): 1406 kg/m3; mass density (313.15 K, x2 = 0.25): 1406 kg/m3; mass density (313.15 K, x2 = 0.75): 1389 kg/m3; mass density (323.15 K, x2 = 0.25): 1397 kg/m3; mass density (333.15 K, x2 = 0.25): 1388 kg/m3; mass density (343.15 K, x2 = 0.25): 1379 kg/m3; mass density (353.15 K, x2 = 0): 1379 kg/m3; mass density (353.15 K, x2 = 0.25): 1370 kg/m3
CC[n+]1ccn(C)c1.O=S(=O)([N-]S(=O)(=O)C(F)(F)F)C(F)(F)F + CCC[N+]1(C)CCCC1.O=S(=O)([N-]S(=O)(=O)C(F)(F)F)C(F)(F)F	–	–	–	–	–	–	–	–	–	–	–	–	–	1514	1503	1494	1484	1474	1464	–	–
CCC[N+]1(C)CCCC1.O=S(=O)([N-]S(=O)(=O)C(F)(F)F)C(F)(F)F + CCC[N+]1(C)CCCC1.N#C[N-]C#N	–	1423	–	–	–	1405	–	–	–	1388	–	–	–	–	–	–	–	–	–	1396	–
CCC[N+]1(C)CCCC1.O=S(=O)([N-]S(=O)(=O)C(F)(F)F)C(F)(F)F + CCCCCCCCCCCCCC[P+](CCCCCC)(CCCCCC)CCCCCC.O=S(=O)([N-]S(=O)(=O)C(F)(F)F)C(F)(F)F	1112	1423	1105	1414	1154	–	1146	1090	1139	1388	1131	1075	1068	–	–	–	–	–	–	1396	mass density (293.15 K, x2 = 0.05): 1392 kg/m3; mass density (293.15 K, x2 = 0.5): 1169 kg/m3; mass density (293.15 K, x2 = 0.6): 1145 kg/m3; mass density (303.15 K, x2 = 0.5): 1162 kg/m3; mass density (303.15 K, x2 = 0.6): 1137 kg/m3; mass density (313.15 K, x2 = 0.05): 1373 kg/m3; mass density (313.15 K, x2 = 0.6): 1129 kg/m3; mass density (323.15 K, x2 = 0.6): 1121 kg/m3; mass density (333.15 K, x2 = 0.05): 1357 kg/m3; mass density (333.15 K, x2 = 0.6): 1114 kg/m3; mass density (333.15 K, x2 = 0.75): 1082 kg/m3; mass density (343.15 K, x2 = 0.05): 1348 kg/m3; mass density (343.15 K, x2 = 0.6): 1106 kg/m3; mass density (353.15 K, x2 = 0): 1379 kg/m3; mass density (353.15 K, x2 = 0.05): 1340 kg/m3; mass density (353.15 K, x2 = 0.5): 1123 kg/m3
CCC[N+]1(C)CCCC1.O=S(=O)([N-]S(=O)(=O)C(F)(F)F)C(F)(F)F + CCCCCC[N+]1(C)CCCC1.O=S(=O)([N-]S(=O)(=O)C(F)(F)F)C(F)(F)F	–	1423	–	1414	–	1405	–	–	–	1388	–	–	–	–	–	–	–	–	–	1396	–
CCC[N+]1(C)CCCC1.O=S(=O)([N-]S(=O)(=O)C(F)(F)F)C(F)(F)F + CC[n+]1ccn(C)c1.O=S(=O)([N-]S(=O)(=O)C(F)(F)F)C(F)(F)F	1499	1423	1489	1414	1456	1405	1447	1469	1437	1388	1428	1444	1433	–	–	–	–	–	–	–	mass density (293.15 K, x2 = 0.25): 1454 kg/m3; mass density (303.15 K, x2 = 0.25): 1445 kg/m3; mass density (313.15 K, x2 = 0.25): 1435 kg/m3; mass density (313.15 K, x2 = 0.75): 1479 kg/m3; mass density (323.15 K, x2 = 0.25): 1426 kg/m3; mass density (333.15 K, x2 = 0.25): 1417 kg/m3; mass density (333.15 K, x2 = 0.75): 1453 kg/m3; mass density (343.15 K, x2 = 0.25): 1408 kg/m3; mass density (353.15 K, x2 = 0.25): 1399 kg/m3; mass density (353.15 K, x2 = 0.5): 1418 kg/m3
CCCCCCCCCCCCCC[P+](CCCCCC)(CCCCCC)CCCCCC.O=S(=O)([N-]S(=O)(=O)C(F)(F)F)C(F)(F)F + CCC[N+]1(C)CCCC1.O=S(=O)([N-]S(=O)(=O)C(F)(F)F)C(F)(F)F	–	–	–	–	–	–	–	–	–	–	–	–	–	–	1055	1049	1042	1033	1026	–	–
CCCCCC[N+]1(C)CCCC1.O=S(=O)([N-]S(=O)(=O)C(F)(F)F)C(F)(F)F + CCC[N+]1(C)CCCC1.O=S(=O)([N-]S(=O)(=O)C(F)(F)F)C(F)(F)F	–	–	–	–	–	–	–	–	–	–	–	–	–	1329	1321	1312	1304	1296	1287	–	mass density (293.15 K, x1 = 0.25): 1405 kg/m3; mass density (293.15 K, x1 = 0.5): 1381 kg/m3; mass density (293.15 K, x1 = 0.75): 1359 kg/m3; mass density (303.15 K, x1 = 0.5): 1373 kg/m3; mass density (303.15 K, x1 = 0.75): 1350 kg/m3; mass density (313.15 K, x1 = 0.5): 1364 kg/m3; mass density (313.15 K, x1 = 0.75): 1341 kg/m3; mass density (323.15 K, x1 = 0.25): 1378 kg/m3; mass density (323.15 K, x1 = 0.5): 1355 kg/m3; mass density (323.15 K, x1 = 0.75): 1332 kg/m3; mass density (333.15 K, x1 = 0.25): 1367 kg/m3; mass density (333.15 K, x1 = 0.5): 1346 kg/m3; mass density (333.15 K, x1 = 0.75): 1322 kg/m3; mass density (343.15 K, x1 = 0.25): 1356 kg/m3; mass density (343.15 K, x1 = 0.5): 1337 kg/m3; mass density (343.15 K, x1 = 0.75): 1311 kg/m3; mass density (353.15 K, x1 = 0.25): 1344 kg/m3; mass density (353.15 K, x1 = 0.75): 1299 kg/m3
CCC[N+]1(C)CCCC1.N#C[N-]C#N + CCC[N+]1(C)CCCC1.O=S(=O)([N-]S(=O)(=O)C(F)(F)F)C(F)(F)F	–	–	–	–	–	–	–	–	–	–	–	–	–	–	1026	1021	1015	1010	1005	–	mass density (293.15 K, x1 = 0.25): 1360 kg/m3; mass density (293.15 K, x1 = 0.5): 1277 kg/m3; mass density (293.15 K, x1 = 0.75): 1170 kg/m3; mass density (303.15 K, x1 = 0.5): 1269 kg/m3; mass density (313.15 K, x1 = 0.25): 1342 kg/m3; mass density (313.15 K, x1 = 0.5): 1261 kg/m3; mass density (313.15 K, x1 = 0.75): 1156 kg/m3; mass density (323.15 K, x1 = 0.25): 1334 kg/m3; mass density (323.15 K, x1 = 0.5): 1253 kg/m3; mass density (323.15 K, x1 = 0.75): 1150 kg/m3; mass density (333.15 K, x1 = 0.5): 1246 kg/m3; mass density (343.15 K, x1 = 0.25): 1318 kg/m3; mass density (343.15 K, x1 = 0.5): 1239 kg/m3; mass density (353.15 K, x1 = 0.25): 1310 kg/m3; mass density (353.15 K, x1 = 0.5): 1232 kg/m3; mass density (353.15 K, x1 = 0.75): 1130 kg/m3
CCCC[N+]1(C)CCCC1.O=S(=O)([N-]S(=O)(=O)C(F)(F)F)C(F)(F)F + CCC[N+]1(C)CCCC1.O=S(=O)([N-]S(=O)(=O)C(F)(F)F)C(F)(F)F	–	–	–	–	–	–	–	–	–	–	–	–	–	1391	1382	1373	1365	1356	1347	–	–
